Data as given in the supplement of paper PMC11417369.
The list shows a part of the results.

system: PF3D7_0420300 AP2 domain 1 (GST-tagged); assay: gcPBM binding intensity (ln(normalized median fluorescence intensity)); higher = stronger DNA binding
Summary of the method: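 The binding buffer was 1× PBS containing 1% milk, 0.2 mg/ml BSA, 0.5% salmon testes DNA and 0.03% Triton X-100. In it, GST-tagged P. falciparum DNA-binding domains expressed in E. coli were applied for 1 h to an Agilent 4 × 180k array of primer-extended double-stranded 36-bp intergenic genomic probes plus negative controls. Binding intensity, read with Alexa488 anti-GST antibody and a 488 nm scan, is the highest Masliner-normalised natural-log median intensity across replicate spots of either probe orientation.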

Row | Sequence | gcPBM binding intensity (ln)
1 | GAAAAGATTTAAAAATGTACAAAAGAAAAAAAAAAA [XGTACX_site6916] | 9.09
2 | TATATTTATTTATATGTATGCATGTCTGTATATGCT [TGCATGCA_site339] | 9.13
3 | CAAAGATAAAATGATGCACACAAAAGGGTGTAATAT [CACACA_site8499] | 9.73
4 | AAAGTACAATCATAATCACACGTGTCTATTATATAC [CACACA_site8103] | 9.5
5 | ACATGGTTTACACGTGCATGTGGATGACTGGACATT [TGCATGCA_site640] | 9.27
6 | AATACGACAAACAAATGTACAAATAAATATTCGCGT [XGTACX_site6427] | 9.67
7 | TTTTCTTTTAATATTTTTAATAATTATATTTTGAAA [XGTACX_negctrl_site495] | 8.78
8 | TGAGAAAATTAAAAGGTGCTCAGAAATTTTATATTA [GTGCAC_site9954] | 9.08
9 | AAATTACTAATGTGCACACATACTAACGTTTAAATA [CACACA_site3572] | 9.5
10 | AAAAATGTAAAGTGCGTGCACAAAATATTTGGAAAA | 9.27
11 | TAAAATTTAAAATATACACACAAAAAGTTATTACAA [CACACA_site4080] | 9.49
12 | AAATTATTATGAAATGGAAAATGCATAAATTGTTTT [XGTACX_negctrl_site206] | 9.19
13 | ATTAAATAATAATAATGTACGTATTATATTAATACA [XGTACX_site5439] | 9.13
14 | ATTCTTTACTCATAAAATTATATTATATAAACTTTT [XGTACX_negctrl_site554] | 9.19
15 | CTCTTTAAAAATATGGGTACAAAAAAAAAAAAAATA [XGTACX_site6185] | 9.02
16 | AAAACAGTGACAACTCGTACTTATATTTTTTTTTGT [XGTACX_site4968] | 9.29
17 | AGGCCCTATGTTGTTACACACATAGAATGATACATC [CACACA_site1266] | 9.46
18 | GAATAAATAAATAAATGTACATATATATTTATTTAT [XGTACX_site243] | 9.06
19 | ATATGTATTTATATATGTTTGAATTTTTTTTTTTTT [CACACA_negctrl_site5] | 9.19

Row | Sequence | gcPBM binding intensity (ln)
20 | GTTCGAAGTATAATTTGTACATATAAAATGGTTCCC [XGTACX_site382] | 9.08
21 | ATTTGATCAACAAAACGTACACATATTTTCATGTGT [XGTACX_site447] | 9.35
22 | CACATATAGTTATATGCACACATCTTACACATATAT [CACACA_site3692] | 9.63
23 | TATCTGTATTTATATACACACATATTCTTTTTACAC [CACACA_site4798] | 9.8
24 | AAAATCACAAAACACACACACACAAAAAAAAAAAAA [CACACA_site1443] | 9.81
25 | AAAAAAGTAAAAAAAGCACACACGAAAAAAAATAAA [CACACA_site2233] | 9.89
26 | ATGGTGCAACATTATGCACACCGTTAAATAACTAAT [CACACA_site9280] | 9.18
27 | GTTTGAAGAACTATAAATGTATAAATAAAAGTTTAG [TGCATGCA_negctrl_site222] | 8.97
28 | CATGGGCAAATATTCTCACACATAAACATAAACATA [CACACA_site4597] | 9.17
29 | GGGAATTATGAAAAAAGTACAGAACAAAAGTAAAAG [XGTACX_site2861] | 9.49
30 | ATATAGTAAAATTATACACACATGAATTTTCCCATG [CACACA_site1770] | 9.54
31 | TTTTTTTTTTTTTTTTGTACTCATAAAAATATATTA [XGTACX_site3458] | 8.48
32 | TACAAAAATGAAAAAAGTACATATCATTTAATATAA [XGTACX_site8066] | 9.2
33 | ATTACATGATATATCACACACACATATAAATATATA [CACACA_site2830] | 9.95
34 | CATATATATATATATACACACACACCGTCCGTGTTA [CACACA_site8975] | 9.7
35 | TAAGTCGCCAAAAGGTGTACACATAATGCATTATCA [XGTACX_site8852] | 9.23
36 | AGTATAGTTATAAATTGTACATATTATTTATTTTAT [XGTACX_site949] | 9.29
37 | AATCATTTATGGAAAGCATGCTAAATTAGAGTATAC [TGCATGCA_site172] | 9.27
38 | TAATATCATTTAGACACACACTCTTACAATCTGTAA [CACACA_site2590] | 9.34

Row | Sequence | gcPBM binding intensity (ln)
39 | ATCTAAACCTTTTGAGCACACATATATATATATATA [CACACA_site8526] | 9.41
40 | ATGGGGAATAATGAATGTACACAAATAAAAAGTTGG [XGTACX_site4015] | 9.25
41 | TAAAAATAAAAATAACGTACATACATACTTATATAT [XGTACX_site3745] | 9.07
42 | TAATTTTTTTAAAACACACAAATATGTAAATATGTA [CACACA_site7769] | 9.11
43 | ATTTTTGTGACTAAGACATGCATAAGAGTAAAGAAA [TGCATGCA_site619] | 9.23
44 | ACATATATTATATAACGTACATAACACTATTTCCTT [XGTACX_site6938] | 9.53
45 | TTTTTTTTTTGTAATTGTACTTTTTTAATACTTCTA [XGTACX_site4195] | 9.29
46 | TATACATATATATACACACACATATATATATATATA [CACACA_site4] | 9.64
47 | TATATATATATATTCACACATAAATATATGCACCCA [CACACA_site4263] | 9.3
48 | AACTTATTAAGCCCTCCACATTTCTCTACTACAACT [CACACA_negctrl_site1552] | 9.46
49 | TCTATTTTTCTAATTTGTACATAGCTTTGAGTTAGT [XGTACX_site8977] | 9.27
50 | AGATAAAATATATACACACACATAAATACGTACAAA [CACACA_site1086] | 10.1
51 | AACTTCTTTTTTATAACACACAAAATATATATACAA [CACACA_site282] | 9.35
52 | TAATTATCACATTGCACACACATTTCCTTTTACATT [CACACA_site3443] | 9.91
53 | GGCATACACAGACACACACACACACCCACATATATA [CACACA_site591] | 10.3
54 | AATAAATAAATAAGTACACACATATATATATATATA [CACACA_site284] | 9.41
55 | AAAAGAATGAAACATAATAAATTACATTAAAATAAT [CACACA_negctrl_site897] | 9.37
56 | ATTTTTTTATTTTGTGCACACACATAAAAATATATA [CACACA_site762] | 9.58
57 | ATAAAATCTTAATCAACAAACAAACAAAAAAAAAAT [CACACA_negctrl_site1161] | 9.54
